Here are results for 43 molecules from PMC4336329 (PLoS ONE, 2015).

Among all 310,000 compounds or so, about 14,000 (4.5%) showed an effect of 50% or more. Effects have a minus sign here. The list shows a part of the results.
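Note: peak tail current of the secondary pulse compared with the same well before compound.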

Chain of human ether-à-go-go-related gene (hERG) potassium channel (Q12809 whole entry, looked up): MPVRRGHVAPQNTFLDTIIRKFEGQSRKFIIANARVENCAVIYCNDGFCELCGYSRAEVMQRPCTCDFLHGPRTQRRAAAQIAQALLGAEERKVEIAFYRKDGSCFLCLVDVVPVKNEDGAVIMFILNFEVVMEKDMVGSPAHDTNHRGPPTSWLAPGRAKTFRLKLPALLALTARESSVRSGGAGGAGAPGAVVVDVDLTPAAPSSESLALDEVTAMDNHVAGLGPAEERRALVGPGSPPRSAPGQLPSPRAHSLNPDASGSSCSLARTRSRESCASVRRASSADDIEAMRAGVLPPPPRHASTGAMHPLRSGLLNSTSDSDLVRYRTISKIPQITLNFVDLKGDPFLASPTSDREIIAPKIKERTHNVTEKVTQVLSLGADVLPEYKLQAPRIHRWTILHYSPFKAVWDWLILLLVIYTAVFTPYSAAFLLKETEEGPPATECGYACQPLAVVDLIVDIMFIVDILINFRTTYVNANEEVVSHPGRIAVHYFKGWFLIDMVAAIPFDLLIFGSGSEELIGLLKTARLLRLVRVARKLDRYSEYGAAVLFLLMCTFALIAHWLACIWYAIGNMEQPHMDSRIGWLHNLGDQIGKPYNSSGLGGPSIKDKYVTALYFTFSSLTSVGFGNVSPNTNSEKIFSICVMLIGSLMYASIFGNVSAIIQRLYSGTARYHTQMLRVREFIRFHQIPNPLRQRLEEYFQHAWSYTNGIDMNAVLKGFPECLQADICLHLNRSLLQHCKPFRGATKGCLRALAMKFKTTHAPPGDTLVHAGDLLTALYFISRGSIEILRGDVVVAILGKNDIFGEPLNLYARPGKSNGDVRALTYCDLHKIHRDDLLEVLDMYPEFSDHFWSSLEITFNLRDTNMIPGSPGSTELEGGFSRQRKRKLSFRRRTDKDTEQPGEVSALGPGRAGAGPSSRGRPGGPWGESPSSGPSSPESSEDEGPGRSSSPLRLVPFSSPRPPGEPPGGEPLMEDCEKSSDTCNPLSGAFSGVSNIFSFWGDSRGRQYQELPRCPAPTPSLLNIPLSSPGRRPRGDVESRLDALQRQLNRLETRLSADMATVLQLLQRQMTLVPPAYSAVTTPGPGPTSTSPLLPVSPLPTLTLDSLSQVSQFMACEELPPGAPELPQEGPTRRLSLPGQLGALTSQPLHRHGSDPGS

The experiment concerns the target human ether-à-go-go-related gene (hERG) potassium channel (human, UniProt Q12809). Nature of the experiment: primary screen, population patch clamp on CHO cells stably expressing hERG.
As for `CCSc1nnc(N2C(=O)C(O)=C(C(=O)c3ccco3)C2c2cccc(OC)c2)s1` (stereo not shown), the “hERG current change (%, negative = inhibition) at 10uM” value is reported as -2.02%. To `COC(=O)C[N+](C)(C)CC#Cc1ccccc1.[Br-]` belongs 2.14%; to `O=C(Nc1nnc(CC(=O)N2CCOCC2)s1)C1COc2ccccc2O1` (stereo not shown), 2.97%.

As to `CCN=C1SC(C(=O)Nc2ccccc2)CC(=O)N1CC` (stereo not shown), the “hERG current change (%, negative = inhibition) at 10uM” value is 11.9%. As to `COC(=O)c1cc2oc(C)cc2n1CC(=O)N1CCCc2ccccc21`, the “hERG current change (%, negative = inhibition) at 10uM” value was -11.9%. With `COc1ccccc1-n1cc(CN2CCN(C3CCCC3)C(CCO)C2)cn1` (stereo not shown), the “hERG current change (%, negative = inhibition) at 10uM” value was -15.3%. The value for `COc1ccc(NC(=O)C(C)N(c2ccc(C)cc2)S(C)(=O)=O)cc1` (stereo not shown) was -22.6%; that for `C/C(=N\NC(=O)CC(C)C)c1ccc(N2CCCCC2)cc1` was -1.29%; that for `O=C(NCc1ccccc1)c1onc(CS(=O)(=O)c2ccccn2)c1C(=O)NCc1ccccc1` was -35.3%. To `O=C(CSc1ccc(Cl)cc1)NC1CCCc2ccccc21` (stereo not shown) belongs 13.9%; to `COc1ccc(-c2cc(C(=O)Nc3ccccc3)on2)cc1`, 46.6%. Consider `COc1cc2c3nnc(-c4ccccc4)c-3cn(Cc3ccccc3F)c2cc1OC`, for which the “hERG current change (%, negative = inhibition) at 10uM” value was -0.741%. As to `CCc1ccc(C2=Nn3c(nnc3-c3cccs3)SC2)cc1`, the “hERG current change (%, negative = inhibition) at 10uM” value is on record as -12.2%. Take `CC1CCN(C(=O)COC(=O)c2ccccc2NC(=O)c2ccco2)CC1`: the “hERG current change (%, negative = inhibition) at 10uM” value is on record as -60.9%. For the molecule `CCOC(=O)c1sc2nc(N3CCOCC3)c3c(c2c1N)CCCC3`, the “hERG current change (%, negative = inhibition) at 10uM” value is given as 9.05%. With `COC(=O)c1scc(C)c1NS(=O)(=O)c1ccc(NC(C)=O)cc1`, the “hERG current change (%, negative = inhibition) at 10uM” value is on record as 0.324%. With `O=C1CC(Cc2ccccc2)C(=O)N1CCc1ccc2c(c1)OCO2` (stereo not shown), the “hERG current change (%, negative = inhibition) at 10uM” value is -23.4%. Consider `CC(C)C(NC(=O)OCc1ccccc1)C(=O)O` (stereo not shown), for which the “hERG current change (%, negative = inhibition) at 10uM” value is recorded as 8.66%. For the molecule `CCOC(=O)C1CCN(C(=O)CN2C(=O)COc3ccc(C(C)(C)C)cc32)CC1`, the “hERG current change (%, negative = inhibition) at 10uM” value is given as -19.3%. Take `CCOC(=O)C[C@H]1c2ccccc2S(=O)(=O)N1C1CC1`: the “hERG current change (%, negative = inhibition) at 10uM” value stood at 5.78%.

For `COc1ccc(Nc2nc(C(=O)N(CCO)Cc3ccccc3)cs2)cc1`, the “hERG current change (%, negative = inhibition) at 10uM” value is reported as -17.1%. In the case of `CN(C)/C=C(/C(=O)c1ccc(Cl)cc1)n1cncn1`, the “hERG current change (%, negative = inhibition) at 10uM” value is listed as -5.95%. Regarding `CN(C)S(=O)(=O)c1ccc(C(=O)Nc2cc(S(=O)(=O)Nc3ccccc3Cl)ccc2N2CCCCC2)cc1`, the “hERG current change (%, negative = inhibition) at 10uM” value is 25.5%. Take `COc1ccc(Cl)cc1S(=O)(=O)NC(C)C(=O)NCCCn1ccnc1` (stereo not shown): the “hERG current change (%, negative = inhibition) at 10uM” value was found to be 6.81%. As for `CC(C)C(=O)NC(Nc1cccc([N+](=O)[O-])c1)C(Cl)(Cl)Cl` (stereo not shown), the “hERG current change (%, negative = inhibition) at 10uM” value was -18.6%. The value for `CCOc1ccc(C2OC(=O)Cc3cc(OC)c(OC)cc32)cc1` (stereo not shown) was -4.4%; that for `COc1ccc(C(=O)c2c(O)cc(-c3ccc(OC)cc3)oc2=O)cc1` was 5.24%; that for `CCN(CC)CCN(Cc1cc2cc3c(cc2[nH]c1=O)OCCO3)C(=S)NCCCN(C)C` was 12.1%. As for `CCOc1ccc(N=Cc2ccc3ccccc3c2)cc1`, the “hERG current change (%, negative = inhibition) at 10uM” value was -0.84%. `O=C1NCC(O)=C1C=NC12CC3CC(CC(C3)C1)C2` [14736166]: the “hERG current change (%, negative = inhibition) at 10uM” value came to 3.2%.

Take `CCCCOc1ccc(C(=O)N2CCN(c3ccc(N4CCOCC4)nn3)CC2)cc1`: the “hERG current change (%, negative = inhibition) at 10uM” value was -41.2%.

`CCOC(=O)c1cc2occc2n1Cc1c(F)cccc1Cl`: the “hERG current change (%, negative = inhibition) at 10uM” value came to 7.64%. `Cc1cc(C)c(NC(=O)C2CC3CCC2C3)c(C)c1` (stereo not shown): the “hERG current change (%, negative = inhibition) at 10uM” value turned out to be 26.1%. Regarding `CCCCCNS(=O)(=O)c1cc2c3c(c1)CCC(=O)N3CCC2`, the “hERG current change (%, negative = inhibition) at 10uM” value was -14.6%. The value for `C[C@]1(CO)CCC[C@@]2(C)C1CC[C@@H](CO)[C@@H]2CCc1ccoc1` (stereo partly shown) was -6.31%; that for `Nn1c(-c2ccccn2)nnc1-c1ccccn1` was -1.69%; that for `COc1ccc(S(=O)(=O)N(Cc2ccccc2)c2ccccc2C(=O)N2CCOCC2)cc1` was -8.54%. Consider `Cc1ccc(/C=N/NC(=O)c2cc3c(ccc4ccccc43)o2)cc1[N+](=O)[O-]`, for which the “hERG current change (%, negative = inhibition) at 10uM” value was 3.49%. Regarding `COc1ccc(S(=O)(=O)N(C)CC(=O)Nc2ccc3c(c2)OCO3)cc1OC`, the “hERG current change (%, negative = inhibition) at 10uM” value is listed as -21.6%. In the case of `COC(=O)C1CCN(C(=O)COC(=O)c2ccc(=O)n(Cc3ccccc3)n2)CC1`, the “hERG current change (%, negative = inhibition) at 10uM” value was -4.78%. To `CCS(=O)(=O)Nc1ccc(C(=O)NCCSc2ccccc2)cc1` belongs -11.1%.

In the case of `CN(C)S(=O)(=O)c1ccc(C(=O)NCc2ccccc2)cc1`, the “hERG current change (%, negative = inhibition) at 10uM” value is reported as -14.7%.

For `Cc1ccc(NC(=O)Cn2ncn3c(cc4ccccc43)c2=O)cc1F`, the “hERG current change (%, negative = inhibition) at 10uM” value was 17.5%.
